Laboratory results: paper PMC5671938, “Multimerin-2 is a ligand for group 14 family C-type lectins CLEC14A, CD93 and CD248 spanning the endothelial pericyte interface” (Oncogene, 2017)
No constants are given. Whether binding was seen depends on the method and setting. Some entries that bind do so weakly or less than the wild type.

Amino acid sequences for entries named in this document (tags omitted). Residues count along the entry.
UniProt Q86T13, residues 22-397: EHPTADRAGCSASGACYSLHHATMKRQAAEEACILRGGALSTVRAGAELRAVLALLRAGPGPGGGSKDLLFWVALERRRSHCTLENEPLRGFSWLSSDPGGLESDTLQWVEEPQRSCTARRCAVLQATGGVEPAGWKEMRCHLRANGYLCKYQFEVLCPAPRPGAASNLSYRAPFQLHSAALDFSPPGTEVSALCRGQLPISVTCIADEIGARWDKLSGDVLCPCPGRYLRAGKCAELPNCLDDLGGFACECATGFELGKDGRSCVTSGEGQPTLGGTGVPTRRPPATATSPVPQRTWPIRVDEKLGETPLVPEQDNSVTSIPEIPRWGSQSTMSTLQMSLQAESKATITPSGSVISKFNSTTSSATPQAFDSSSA

Experiments:
Assay in all cases: far-Western; lysates of HEK293T transfected with His-tagged MMRN2 constructs separated by SDS-PAGE under reducing conditions; probed 1 h with CLEC14A-ECD-Fc (2 μg/ml); only the binder purified
[1] = target: T1, MMRN2 EMI and coiled-coil construct (MMRN2^EMI-CC) (human) (UniProt Q9H8L6)
T1 sequence: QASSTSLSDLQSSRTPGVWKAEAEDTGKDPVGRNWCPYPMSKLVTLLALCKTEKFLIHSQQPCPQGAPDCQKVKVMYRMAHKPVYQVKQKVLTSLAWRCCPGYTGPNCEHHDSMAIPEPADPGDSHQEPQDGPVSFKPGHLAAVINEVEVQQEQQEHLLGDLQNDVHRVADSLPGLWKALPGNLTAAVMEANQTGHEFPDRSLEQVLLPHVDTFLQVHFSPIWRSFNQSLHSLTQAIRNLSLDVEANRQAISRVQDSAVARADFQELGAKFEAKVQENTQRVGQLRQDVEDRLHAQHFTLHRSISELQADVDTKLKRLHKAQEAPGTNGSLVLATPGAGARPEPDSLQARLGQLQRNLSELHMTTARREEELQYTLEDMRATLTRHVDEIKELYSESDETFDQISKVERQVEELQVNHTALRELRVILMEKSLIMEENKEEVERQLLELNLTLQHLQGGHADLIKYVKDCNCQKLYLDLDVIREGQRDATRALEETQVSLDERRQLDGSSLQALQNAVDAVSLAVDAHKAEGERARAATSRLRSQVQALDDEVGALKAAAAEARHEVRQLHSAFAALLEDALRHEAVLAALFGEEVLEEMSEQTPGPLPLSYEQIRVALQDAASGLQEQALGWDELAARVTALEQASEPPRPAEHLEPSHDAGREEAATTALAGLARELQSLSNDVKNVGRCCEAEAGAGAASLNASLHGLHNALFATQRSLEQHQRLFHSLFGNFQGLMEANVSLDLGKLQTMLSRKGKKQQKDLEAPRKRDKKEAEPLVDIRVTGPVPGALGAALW

[2] = target: T2, MMRN2 coiled-coil alone (MMRN2^CC) (human) (UniProt Q9H8L6)
T2 sequence: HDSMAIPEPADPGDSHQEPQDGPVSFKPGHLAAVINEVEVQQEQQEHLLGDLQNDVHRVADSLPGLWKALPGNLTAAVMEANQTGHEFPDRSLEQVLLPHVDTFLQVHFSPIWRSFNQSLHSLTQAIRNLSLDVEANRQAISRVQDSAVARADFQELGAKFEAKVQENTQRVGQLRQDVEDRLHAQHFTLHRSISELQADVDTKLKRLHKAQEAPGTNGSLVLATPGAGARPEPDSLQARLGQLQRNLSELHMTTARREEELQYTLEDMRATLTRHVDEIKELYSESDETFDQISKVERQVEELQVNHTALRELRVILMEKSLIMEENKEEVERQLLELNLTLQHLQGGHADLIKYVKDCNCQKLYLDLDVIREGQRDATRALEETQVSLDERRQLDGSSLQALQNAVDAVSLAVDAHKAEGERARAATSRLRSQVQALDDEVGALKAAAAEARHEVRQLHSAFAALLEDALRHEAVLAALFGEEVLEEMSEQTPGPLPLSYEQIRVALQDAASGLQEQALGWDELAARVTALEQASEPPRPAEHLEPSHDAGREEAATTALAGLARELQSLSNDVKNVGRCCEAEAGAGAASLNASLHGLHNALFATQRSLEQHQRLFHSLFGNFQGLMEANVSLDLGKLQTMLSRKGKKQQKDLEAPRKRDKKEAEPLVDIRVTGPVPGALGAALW

[3] = target: T3, MMRN2 coiled-coil and C1q construct (MMRN2^CC-C1q) (human) (UniProt Q9H8L6)
T3 sequence: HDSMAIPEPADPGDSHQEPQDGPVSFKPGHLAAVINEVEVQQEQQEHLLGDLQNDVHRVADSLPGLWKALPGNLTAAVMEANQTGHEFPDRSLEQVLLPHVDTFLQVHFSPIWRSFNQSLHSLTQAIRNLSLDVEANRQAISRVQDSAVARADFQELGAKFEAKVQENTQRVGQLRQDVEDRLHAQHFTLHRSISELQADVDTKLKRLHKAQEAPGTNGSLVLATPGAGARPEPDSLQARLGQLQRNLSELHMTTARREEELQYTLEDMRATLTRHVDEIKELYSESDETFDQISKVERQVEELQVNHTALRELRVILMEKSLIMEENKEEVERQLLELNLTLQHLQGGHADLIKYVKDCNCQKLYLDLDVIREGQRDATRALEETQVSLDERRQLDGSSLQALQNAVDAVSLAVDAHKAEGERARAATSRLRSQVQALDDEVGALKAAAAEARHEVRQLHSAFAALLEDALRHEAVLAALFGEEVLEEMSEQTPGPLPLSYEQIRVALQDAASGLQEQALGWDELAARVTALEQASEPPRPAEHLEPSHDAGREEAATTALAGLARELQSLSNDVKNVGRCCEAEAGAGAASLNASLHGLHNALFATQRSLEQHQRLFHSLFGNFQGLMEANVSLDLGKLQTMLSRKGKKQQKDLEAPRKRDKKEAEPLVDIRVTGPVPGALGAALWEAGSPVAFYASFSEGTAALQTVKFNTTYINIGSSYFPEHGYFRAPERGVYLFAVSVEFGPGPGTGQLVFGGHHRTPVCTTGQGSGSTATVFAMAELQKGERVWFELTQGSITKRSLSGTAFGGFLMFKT

MMRN2^133-486 (human) = target: T4, MMRN2^133-486 (human) (UniProt Q9H8L6)
T4 sequence: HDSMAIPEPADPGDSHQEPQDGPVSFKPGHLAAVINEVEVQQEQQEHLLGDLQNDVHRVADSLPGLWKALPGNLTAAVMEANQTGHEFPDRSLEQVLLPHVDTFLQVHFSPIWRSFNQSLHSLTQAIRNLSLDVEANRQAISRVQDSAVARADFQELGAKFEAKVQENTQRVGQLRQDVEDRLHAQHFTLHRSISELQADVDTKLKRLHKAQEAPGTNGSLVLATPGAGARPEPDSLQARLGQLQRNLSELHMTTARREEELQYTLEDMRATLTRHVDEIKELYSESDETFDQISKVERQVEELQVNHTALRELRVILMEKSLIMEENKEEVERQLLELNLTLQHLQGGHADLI

Substance: recombinant CLEC14A extracellular domain with an Fc tag (CLEC14A-ECD-Fc) (from UniProt Q86T13 22-397) (Fc fusion)
- binding [1]: binds
- binding [2]: binds
- binding [3]: binds
- binding (MMRN2^133-486 (human)): no binding (tested: 2 μg/ml)
